The other results are listed elsewhere or left out.

In the assay the test system is PfHDP1 homeodomain (GST-tagged). Description: gcPBM binding intensity (ln(normalized median fluorescence intensity)); higher = stronger DNA binding. In a few lines:
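After 1 h on an Agilent 4 × 180k array of primer-extended double-stranded 36-bp intergenic genomic probes and negative controls, bound GST-tagged P. falciparum DNA-binding domains were detected with Alexa488 anti-GST antibody and scanned at 488 nm. The domains had been expressed in E. coli, and binding took place in 1× PBS with 1% milk, 0.2 mg/ml BSA, 0.5% salmon testes DNA and 0.03% Triton X-100. Binding intensity is the highest Masliner-normalised natural-log median intensity across replicate spots of either probe orientation.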
On to “TATGTATAAAAATATTGTACATATTATATATATATA [XGTACX_site2947]”, for which the “gcPBM binding intensity (ln)” value turned out to be 8.85.

In the case of “AAAAAATAAAAAAATAAAAAATAAAAAATAAAAAAT [TGCATGCA_negctrl_site90]”, the “gcPBM binding intensity (ln)” value came to 6.51.

Turning to “TTTTCTAAAAAAAGTTGTACATCTTATTTATATTAT [XGTACX_site295]”, the “gcPBM binding intensity (ln)” value turned out to be 6.42.

As for “AAAAATTACCCATCCATACACACATATTTTTTTTAA [CACACA_site2190]”, the “gcPBM binding intensity (ln)” value is 6.71.

As to “ATGTAAGACAAAAAGGGTACATAATGCGTATGTATT [XGTACX_site4666]”, the “gcPBM binding intensity (ln)” value was 6.47.

In the case of “TATAAAAATAAATAAATAAATAAATAAATAAATAAA [TGCATGCA_negctrl_site310]”, the “gcPBM binding intensity (ln)” value stood at 6.53.

Turning to “GTATATAATTATATATGTACTAAATAAATATTTTTA [XGTACX_site6062]”, the “gcPBM binding intensity (ln)” value came to 6.3.

Take “ATTTTTTCATATTCTACACACGTGAACAAATGTGTC [CACACA_site3007]”: the “gcPBM binding intensity (ln)” value was 6.67.

“TATATTTGGTTTCATTCATTTTTATAGAAATCTCAA [CACACA_negctrl_site1412]”: the “gcPBM binding intensity (ln)” value stood at 6.33.

Take “TATTTTTTTACATATTGTACATAATATAAAACTTAC [XGTACX_site8273]”: the “gcPBM binding intensity (ln)” value was determined as 6.59.

Take “CACACGTATATATATACACACTAAAATACCCAGACA [CACACA_site6142]”: the “gcPBM binding intensity (ln)” value was found to be 6.87.

As to “AATATTTTGTTATTTATTTAATCTAATATTATGATA [GTGCAC_negctrl_site258]”, the “gcPBM binding intensity (ln)” value amounted to 6.08.

Take “ATATAATAGAAGTGTACACACATATTTATGGGTGTA [CACACA_site5686]”: the “gcPBM binding intensity (ln)” value came out at 6.36.

On to “AATATTTTTATATATATACACACTTACATATATATA [CACACA_site3609]”, for which the “gcPBM binding intensity (ln)” value amounted to 6.8.

Regarding “ATAATATTGTGGTATACACACCTTACAAAAAGGTAC [CACACA_site5582]”, the “gcPBM binding intensity (ln)” value is 6.77.

As for “TTTTTAGTTAATTAAACACACAAAAAAAAAAATAAA [CACACA_site3930]”, the “gcPBM binding intensity (ln)” value was determined as 6.4.

For the sequence “AGGTGAATATTTTTTACACACATAAAAAAAATATAT [CACACA_site57]”, the “gcPBM binding intensity (ln)” value is 6.51.

With “TATATATTATATATGTGTACTCACTAACAAAAATTA [XGTACX_site6285]”, the “gcPBM binding intensity (ln)” value came out at 6.46.

As to “TTTAAGATTTTGTAATGTACATATATACATATATAT [XGTACX_site399]”, the “gcPBM binding intensity (ln)” value was found to be 6.35.

As to “TATATTTTTATAATAACACACGATATATGTTTAGGA [CACACA_site1283]”, the “gcPBM binding intensity (ln)” value was found to be 6.13.

Consider “AAATTATATAAAGGAACACACATTTTATTTTATTTT [CACACA_site1500]”, for which the “gcPBM binding intensity (ln)” value was found to be 6.34.

On to “ATTCTTAAAAAAAAATGTACACATGAACAATATGTA [XGTACX_site362]”, for which the “gcPBM binding intensity (ln)” value is 6.18.

On to “TGTATATCATAAGATGGTACACGTGTGTGCGTATGC [XGTACX_site2255]”, for which the “gcPBM binding intensity (ln)” value was 7.98.

For the sequence “ATTAAAATTTGTTAAAGTACTTAATAAAAATTTTTC [XGTACX_site1959]”, the “gcPBM binding intensity (ln)” value was determined as 6.29.

As for “TATAAATCTATAAATGCACACAAGGGAAGAAAAACG [CACACA_site2965]”, the “gcPBM binding intensity (ln)” value amounted to 9.3.

For “AAAGAACAAATAAAACATAAAATAATATATATAGAT [CACACA_negctrl_site1764]”, the “gcPBM binding intensity (ln)” value was 6.63.

Regarding “CAAACAATTAAACAAACACACATATACAAGTATATA [CACACA_site8639]”, the “gcPBM binding intensity (ln)” value turned out to be 6.45.

For the sequence “TATTATTCCAAGAAAAAAAAAAATAAAAAAAAAAAA [CACACA_negctrl_site1424]”, the “gcPBM binding intensity (ln)” value amounted to 5.85.

For “ATAAATGACAAATTAACACACATATATTATAGATAT [CACACA_site7770]”, the “gcPBM binding intensity (ln)” value is 6.45.

For “TAATGCATTTTCGCATGTACATATTTCTCTTTATAT [XGTACX_site8915]”, the “gcPBM binding intensity (ln)” value was determined as 6.47.

Regarding “ATCTATATTTAATTTACACACAAAAAAAATTGTTGG [CACACA_site6582]”, the “gcPBM binding intensity (ln)” value came to 6.73.

As for “AAAATGTGATATGTAAATATATATGTATGTATATAT [CACACA_negctrl_site1748]”, the “gcPBM binding intensity (ln)” value turned out to be 6.49.

Turning to “AATATATGAATTATATGTACATATAGATAAGTCACA [XGTACX_site7637]”, the “gcPBM binding intensity (ln)” value amounted to 6.75.

Take “TATTATAGAAATTTAATGTTGGACAAAAAAATGAAA [CACACA_negctrl_site1351]”: the “gcPBM binding intensity (ln)” value turned out to be 6.43.

With “TCTTAATATCGTTTCTCACACATATACAAACATAAA [CACACA_site5700]”, the “gcPBM binding intensity (ln)” value amounted to 6.74.

As to “AAATTATTTATTTTATGTACATATTATTAAAGTTAA [XGTACX_site552]”, the “gcPBM binding intensity (ln)” value stood at 6.26.

For “AGAGAGAAAGCTATAACATGCAACAATTTTTAGAAC [TGCATGCA_site596]”, the “gcPBM binding intensity (ln)” value worked out at 6.7.

“TTGCATTTTCTAGTAACACACAATTAGCGTTGCTGT [CACACA_site3594]”: the “gcPBM binding intensity (ln)” value was 6.46.

Consider “TAACAAAAAGGGAACACATGCGCTCTTTATTTATTT [TGCATGCA_site620]”, for which the “gcPBM binding intensity (ln)” value worked out at 6.36.

For “TATAGAAGCATTCACACACACACATACATACACATA [CACACA_site1466]”, the “gcPBM binding intensity (ln)” value turned out to be 6.97.

As for “ATAATATTAATATGTACACACCTTAATCCTTAAAAG [CACACA_site7640]”, the “gcPBM binding intensity (ln)” value was determined as 6.61.

Consider “TATACCTGAATTAAAAGTACATGTATATATTTTCCC [XGTACX_site3594]”, for which the “gcPBM binding intensity (ln)” value turned out to be 6.24.

In the case of “ATAATTTTTTAAGTGTGTACTAAAATGTGTATTTTA [XGTACX_site6227]”, the “gcPBM binding intensity (ln)” value turned out to be 6.76.

As for “GTATTTATATGATTAACACACATATGGGTATTAATA [CACACA_site4853]”, the “gcPBM binding intensity (ln)” value was determined as 6.44.

The values above are taken from the supplement of paper PMC11417369.
